From PMC4336329 (PLoS ONE, 2015)
Hit rate of the full screen: of about 310,000 compounds, about 14,000 (4.5%) showed an effect of 50% or more. Effects have a minus sign here. The list shows a part of the results.
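Note: peak tail current of the secondary pulse compared with the same well before compound.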

What follows are molecules tested against human ether-à-go-go-related gene (hERG) potassium channel (human, UniProt Q12809) (assay: primary screen, population patch clamp on CHO cells stably expressing hERG).
Sequence of human ether-à-go-go-related gene (hERG) potassium channel (Q12809 whole entry, looked up): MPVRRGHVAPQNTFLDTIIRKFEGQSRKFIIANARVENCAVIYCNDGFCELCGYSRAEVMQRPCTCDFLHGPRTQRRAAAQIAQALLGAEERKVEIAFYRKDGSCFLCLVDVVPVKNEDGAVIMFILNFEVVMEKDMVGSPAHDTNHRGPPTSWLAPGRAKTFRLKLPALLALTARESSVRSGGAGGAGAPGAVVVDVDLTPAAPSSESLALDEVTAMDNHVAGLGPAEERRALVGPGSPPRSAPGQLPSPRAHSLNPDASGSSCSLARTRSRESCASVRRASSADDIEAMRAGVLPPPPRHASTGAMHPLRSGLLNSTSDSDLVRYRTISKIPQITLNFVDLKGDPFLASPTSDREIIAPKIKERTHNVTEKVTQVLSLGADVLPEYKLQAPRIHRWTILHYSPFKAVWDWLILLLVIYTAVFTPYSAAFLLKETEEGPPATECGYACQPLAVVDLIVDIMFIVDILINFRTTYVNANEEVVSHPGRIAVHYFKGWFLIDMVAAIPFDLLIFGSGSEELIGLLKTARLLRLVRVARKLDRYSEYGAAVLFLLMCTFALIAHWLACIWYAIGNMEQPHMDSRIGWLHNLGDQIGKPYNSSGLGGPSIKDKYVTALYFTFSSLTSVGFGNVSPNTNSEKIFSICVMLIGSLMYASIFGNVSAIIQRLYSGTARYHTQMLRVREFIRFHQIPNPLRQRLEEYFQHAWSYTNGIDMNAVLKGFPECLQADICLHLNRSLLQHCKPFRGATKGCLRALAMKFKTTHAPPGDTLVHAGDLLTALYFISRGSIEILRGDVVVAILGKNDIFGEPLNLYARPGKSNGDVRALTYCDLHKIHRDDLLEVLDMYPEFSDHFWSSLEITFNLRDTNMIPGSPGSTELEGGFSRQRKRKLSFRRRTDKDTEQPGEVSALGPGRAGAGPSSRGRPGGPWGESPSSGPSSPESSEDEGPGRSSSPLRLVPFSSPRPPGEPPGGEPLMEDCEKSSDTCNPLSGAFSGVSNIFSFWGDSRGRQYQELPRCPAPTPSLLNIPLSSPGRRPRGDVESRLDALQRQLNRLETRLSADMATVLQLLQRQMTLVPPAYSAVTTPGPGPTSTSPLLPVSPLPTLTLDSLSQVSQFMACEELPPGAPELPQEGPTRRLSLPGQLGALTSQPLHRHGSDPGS
`COc1ccc(Cc2nc3ccc(C(=O)NCCc4ccccn4)cc3o2)cc1OC` was tested, and the “hERG current change (%, negative = inhibition) at 10uM” value was -1.86%. With `COc1ccc(NC(=O)C2CCCCN2S(=O)(=O)c2ccc(F)cc2)cc1` (stereo not drawn) the “hERG current change (%, negative = inhibition) at 10uM” value was -16.5%. For `O=C(Nc1cc(Sc2nc3ccccc3s2)cc([N+](=O)[O-])c1)c1ccccc1`, the “hERG current change (%, negative = inhibition) at 10uM” value was 9.36%. In the case of `Cc1ccc2c(c1)c(=O)c(Br)c(C)n2Cc1ccccc1`, the “hERG current change (%, negative = inhibition) at 10uM” value is reported as 10.1%. For `CCN(CC)CCCNC(=O)C1c2ccccc2C(=O)N(C)C1c1ccc(OC)cc1` (stereo not drawn), the “hERG current change (%, negative = inhibition) at 10uM” value was 6.8%. In the case of `CCc1nnc(NC(=O)CCN2C(=O)CCC2=O)s1`, the “hERG current change (%, negative = inhibition) at 10uM” value is reported as -8.3%. For `COc1cc(C2=NOC(C(=O)N3CCOCC3)C2)cc(OC)c1OC` (stereo not drawn), the “hERG current change (%, negative = inhibition) at 10uM” value was 15.1%. `COC(=O)c1ccccc1N=Nc1c(C)n[nH]c1C` was tested, and the “hERG current change (%, negative = inhibition) at 10uM” value was 4.65%. In the case of `CC(=O)Nc1ccc(OCc2ccc3c(c2)OCO3)cc1`, the “hERG current change (%, negative = inhibition) at 10uM” value is reported as 1.79%. `Nc1ccccc1C(=O)NCCCN1CCOCC1` was tested, and the “hERG current change (%, negative = inhibition) at 10uM” value was 15.6%. In the case of `COC(=O)CNC(=O)CSc1nc2sccc2c(=O)n1-c1ccccc1`, the “hERG current change (%, negative = inhibition) at 10uM” value is reported as 6.29%. For `O=C(O)C1C2C=CC(C2)C1C(=O)Nc1nccs1` (stereo not drawn), the “hERG current change (%, negative = inhibition) at 10uM” value was 15.3%. `O=C(Nc1ccccc1C(=O)NCCCN1CCOCC1)c1ccc(F)cc1F` was tested, and the “hERG current change (%, negative = inhibition) at 10uM” value was 0.91%. For `CCCn1c(=NC(=O)c2c(-c3c(F)cccc3Cl)noc2C)c(C(=O)OCC)cc2c(=O)n3ccccc3nc21`, the “hERG current change (%, negative = inhibition) at 10uM” value was 5.26%. `COc1ccc(NC(=S)N(C(C)C)C2CCN(C(C)C)CC2)cc1Cl` was tested, and the “hERG current change (%, negative = inhibition) at 10uM” value was 0.307%. `CSc1ccc(C(=O)C2CCCN(Cc3cccn3-c3cccnc3)C2)cc1` (stereo not drawn) was tested, and the “hERG current change (%, negative = inhibition) at 10uM” value was -65.1%. In the case of `CSc1nc(-c2ccccc2)cc(C(F)(F)F)c1C#N`, the “hERG current change (%, negative = inhibition) at 10uM” value is reported as -0.323%. For `COc1ccc(C2/C=C\CN(C(=O)c3ccccc3)[C@H](Cc3ccccc3)C(=O)N2Cc2ccc(F)cc2)cc1` (stereo partly drawn), the “hERG current change (%, negative = inhibition) at 10uM” value was 17%. In the case of `CCc1ccc2c(c1)Sc1ccccc1CC2N1CCN(C)CC1.CS(=O)(=O)O.O` (stereo not drawn), the “hERG current change (%, negative = inhibition) at 10uM” value is reported as -69%. With `CCC(C)(C)NC(=O)c1ccc2c(c1)S(=O)(=O)c1ccccc1C2=O` the “hERG current change (%, negative = inhibition) at 10uM” value was -16.8%. `CC(=O)NC12CC3CC(C)(C1)CC(NC(C)=O)(C3)C2` was tested, and the “hERG current change (%, negative = inhibition) at 10uM” value was -11.4%. With `Cc1ccc(NC(=O)CN(C)C(=O)COc2cc(F)ccc2[N+](=O)[O-])cc1` the “hERG current change (%, negative = inhibition) at 10uM” value was 20.3%. For `O=C(NCc1ccc(F)cc1)C1CCCN1C(=O)Nc1ccc(F)cc1` (stereo not drawn), the “hERG current change (%, negative = inhibition) at 10uM” value was -3.52%. With `CC(C)(C)C(=O)Nc1ccc(-c2cc3cc(Cl)ccc3o2)cc1` the “hERG current change (%, negative = inhibition) at 10uM” value was 8.12%. In the case of `O=C(NC(=O)c1ccc(Cl)c(Cl)c1)OC1CCS(=O)(=O)C1` (stereo not drawn), the “hERG current change (%, negative = inhibition) at 10uM” value is reported as 0.478%. For `COC(=O)C1CCCN1S(=O)(=O)c1ccc([N+](=O)[O-])cc1` (stereo not drawn), the “hERG current change (%, negative = inhibition) at 10uM” value was 11.5%. In the case of `CCc1noc(C)c1C(=O)N1CCCSC1=Nc1ccccc1OC`, the “hERG current change (%, negative = inhibition) at 10uM” value is reported as -8.77%. `Cc1cc(/C=C2/C(=O)NN(c3ccccc3)C2=O)c(C)n1-c1cccc(O)c1` was tested, and the “hERG current change (%, negative = inhibition) at 10uM” value was 3.64%. `CCC(=O)c1ccc(N2CCC(C)CC2)c(F)c1` was tested, and the “hERG current change (%, negative = inhibition) at 10uM” value was 5.15%. In the case of `O=C1C2C3C=CC(C4CC34)C2C(=O)N1/N=C/c1ccc(-c2ccccc2[N+](=O)[O-])o1` (stereo not drawn), the “hERG current change (%, negative = inhibition) at 10uM” value is reported as -49.8%. For `O=C(c1ccco1)N1CCN(Cc2nnc(-c3ccccc3F)o2)CC1`, the “hERG current change (%, negative = inhibition) at 10uM” value was 9.67%. `CCCC(=O)C1=C(SCC)CC(C)(C)C(C(=O)OC)C1=O` (stereo not drawn) was tested, and the “hERG current change (%, negative = inhibition) at 10uM” value was -11.6%. `CCOC(=O)c1cc([N+](=O)[O-])sc1N` was tested, and the “hERG current change (%, negative = inhibition) at 10uM” value was 2.1%. For `Cc1nn(C)cc1C1Nc2ccccc2C(=O)N1O` (stereo not drawn), the “hERG current change (%, negative = inhibition) at 10uM” value was 22.6%. `COCc1cc(SC2CCCCC2)nc(C)n1` was tested, and the “hERG current change (%, negative = inhibition) at 10uM” value was 0.767%. In the case of `COc1ccc(NC(=O)c2cn(CCC#N)nc2-c2cccs2)cc1`, the “hERG current change (%, negative = inhibition) at 10uM” value is reported as -11.3%. With `CC(C)(C)c1ccccc1NC(=S)NC1CCCC1` the “hERG current change (%, negative = inhibition) at 10uM” value was 1.41%. In the case of `CCC(C)c1ccc(NC(=O)CSc2nncn2N)cc1` (stereo not drawn), the “hERG current change (%, negative = inhibition) at 10uM” value is reported as -27.5%. For `Cc1cccc(NC(=O)CCN2C(=O)C3C4CCC(C4)C3C2=O)c1C` (stereo not drawn), the “hERG current change (%, negative = inhibition) at 10uM” value was 0.845%. `Cc1cc(NC(=O)c2ccc(NC(=O)C3CCCO3)cc2)ccc1Br` (stereo not drawn) was tested, and the “hERG current change (%, negative = inhibition) at 10uM” value was 8.57%. For `CCOC(=O)N1CCN(c2nc3c(C)cccn3c(=O)c2C=O)CC1`, the “hERG current change (%, negative = inhibition) at 10uM” value was -9.2%. For `COC(=O)C(=Cc1ccc(OCc2ccc([N+](=O)[O-])cc2)c(OC)c1)C(=O)OC`, the “hERG current change (%, negative = inhibition) at 10uM” value was 16.1%. `COc1ccc(C2(C(=O)Nc3ccc(C(=O)O)cc3)CCOCC2)cc1` was tested, and the “hERG current change (%, negative = inhibition) at 10uM” value was 9.95%. With `Cc1cccc2nc(-c3ccco3)c(Nc3ccc4c(c3)OCCO4)n12` the “hERG current change (%, negative = inhibition) at 10uM” value was 3.98%. `O=C(Nc1ccccc1)Nc1n[nH]c2nnc(-c3ccccc3)c(-c3ccccc3)c12` was tested, and the “hERG current change (%, negative = inhibition) at 10uM” value was -13.4%. In the case of `O=C(O)c1cc(NN=C2CCN(Cc3ccccc3)CC2)ccc1Cl`, the “hERG current change (%, negative = inhibition) at 10uM” value is reported as 3.42%. With `CC(C)(O)C(=O)NN(C(=O)c1ccccc1)c1ccc2ccccc2c1` the “hERG current change (%, negative = inhibition) at 10uM” value was 6.71%. In the case of `CCc1cc(C(=O)Nc2cc(S(=O)(=O)N(C)C)ccc2C)sc1C`, the “hERG current change (%, negative = inhibition) at 10uM” value is reported as -16.9%. For `O=C(CCCCCNC(=O)c1ccccc1)C[N+](=O)[O-]`, the “hERG current change (%, negative = inhibition) at 10uM” value was 10.8%. For `O=C(NNC(=O)c1cc(Br)c(Br)s1)c1ccncc1`, the “hERG current change (%, negative = inhibition) at 10uM” value was -3.41%. `CCN(CC)CCn1cnc2c1c(=O)n(CCOC(=O)c1cc(OC)c(OC)c(OC)c1)c(=O)n2C.Cl` was tested, and the “hERG current change (%, negative = inhibition) at 10uM” value was -60.3%. `CCc1cccc2c(/C=N/NC(=O)c3cccc(S(=O)(=O)Nc4ccccc4Cl)c3)c[nH]c12` was tested, and the “hERG current change (%, negative = inhibition) at 10uM” value was 14.6%. For `O=c1cc(NC2CCCCCC2)[nH]c(=O)[nH]1`, the “hERG current change (%, negative = inhibition) at 10uM” value was 4.69%. For `O=C(NCc1ccccc1)NC12CC3CC(CC(C3)C1)C2`, the “hERG current change (%, negative = inhibition) at 10uM” value was 9.64%. For `COc1cccc(Nc2nc(-c3cccs3)nc3ccccc23)c1`, the “hERG current change (%, negative = inhibition) at 10uM” value was 9.19%. With `COc1ccc(NC(=O)CSc2nnc(C3CCCCC3)n2N)cc1OC` the “hERG current change (%, negative = inhibition) at 10uM” value was 21.9%. For `CC(=O)Oc1ccc(/C=C(\NC(=O)c2ccco2)C(=O)NCc2ccco2)cc1`, the “hERG current change (%, negative = inhibition) at 10uM” value was -52%.
